Common to all, as to assay: split reporter; split YFP BiFC in transiently transformed Arabidopsis protoplasts, 2 ug of each plasmid, incubated overnight; read by flow cytometry (at least three biological replicates, minimum 30,000 cells); each pair tested in both fusion conformations (SPN and SPC); positive where the normalized BiFC score lies above the threshold 0.01 in both conformations
For assay [1], the target named is T1, bZIP2 (Arabidopsis thaliana), Q9SI15.
T1 chain: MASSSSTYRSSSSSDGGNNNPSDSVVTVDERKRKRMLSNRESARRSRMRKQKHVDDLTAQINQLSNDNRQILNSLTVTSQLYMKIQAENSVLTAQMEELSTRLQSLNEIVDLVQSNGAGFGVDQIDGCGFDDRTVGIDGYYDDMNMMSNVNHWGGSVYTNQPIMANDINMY
The following applies: remark: other sources report otherwise.

Assay [2] addresses T2, bZIP11 (Arabidopsis thaliana), O65683.
T2 chain: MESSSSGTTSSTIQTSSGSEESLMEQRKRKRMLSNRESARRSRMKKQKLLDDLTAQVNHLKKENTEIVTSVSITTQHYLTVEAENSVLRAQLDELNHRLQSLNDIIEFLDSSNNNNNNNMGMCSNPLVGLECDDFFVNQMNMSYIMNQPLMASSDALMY
The following applies: remark: other sources report otherwise.

Assay [3] has as its target bZIP44 (Arabidopsis thaliana), C0Z2L5. The following applies: remark: other sources report otherwise.
For assay [4], the target named is T3, bZIP1 (Arabidopsis thaliana), Q9FGX2.
T3 chain: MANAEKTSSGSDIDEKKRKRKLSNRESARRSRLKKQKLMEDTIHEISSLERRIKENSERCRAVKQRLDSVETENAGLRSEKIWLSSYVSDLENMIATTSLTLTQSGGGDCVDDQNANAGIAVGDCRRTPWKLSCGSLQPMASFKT
The following applies: remark: other sources report otherwise.

In assay [5] the target is T4, bZIP53 (Arabidopsis thaliana), Q9LZP8.
T4 chain: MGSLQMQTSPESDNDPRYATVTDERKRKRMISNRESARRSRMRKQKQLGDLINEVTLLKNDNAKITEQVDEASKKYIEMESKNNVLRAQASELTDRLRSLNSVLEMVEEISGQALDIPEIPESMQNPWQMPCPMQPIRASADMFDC
The following applies: remark: other sources report otherwise.

The target in assay [6] is T5, GBF3 (Arabidopsis thaliana) (UniProt P42776).
T5 sequence: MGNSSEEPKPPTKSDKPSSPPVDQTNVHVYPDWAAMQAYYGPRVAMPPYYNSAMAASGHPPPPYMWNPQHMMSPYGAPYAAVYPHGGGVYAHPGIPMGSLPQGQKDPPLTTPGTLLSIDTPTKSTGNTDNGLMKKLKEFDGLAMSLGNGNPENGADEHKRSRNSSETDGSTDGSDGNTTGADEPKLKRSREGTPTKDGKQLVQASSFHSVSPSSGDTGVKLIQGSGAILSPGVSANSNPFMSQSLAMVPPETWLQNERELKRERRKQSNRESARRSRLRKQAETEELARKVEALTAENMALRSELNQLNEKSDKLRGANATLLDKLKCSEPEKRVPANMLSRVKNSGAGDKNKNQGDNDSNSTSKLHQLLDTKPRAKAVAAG

Assay [7] concerns the target T6, HyH (Arabidopsis thaliana) (UniProt Q8W191).
T6 sequence: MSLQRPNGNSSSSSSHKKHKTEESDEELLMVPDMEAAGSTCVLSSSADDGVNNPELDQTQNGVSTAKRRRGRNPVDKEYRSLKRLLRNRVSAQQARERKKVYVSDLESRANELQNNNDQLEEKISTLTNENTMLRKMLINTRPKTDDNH

Results on two molecules are retold here after paper PMC4599898.

No constants are given. Whether binding was seen depends on the method and setting. Binding seen in cells or lysates may run through a third protein. Some entries that bind do so weakly or less than the wild type.

B1: bZIP9, Q9FUD3 1-277 (protein)
chain: MDNHTAKDIGMKRSASELALQEYLTTSPLDPCFDLMNRDYTCELRDSLLWSEGLFPAGPFRDAQSSICENLSADSPVSANKPEVRGGVRRTTSGSSHVNSDDEDAETEAGQSEMTNDPNDLKRIRRMNSNRESAKRSRRRKQEYLVDLETQVDSLKGDNSTLYKQLIDATQQFRSAGTNNRVLKSDVETLRVKVKLAEDLVARGSLTSSLNQLLQTHLSPPSHSISSLHYTGNTSPAITVHSDQSLFPGMTLSGQNSSPGLGNVSSEAVSCVSDIWP
In the case of B1, the binding result in assay [1], in assay [2], in assay [3], in assay [4] and in assay [5] was “no binding” in each case.

B2: HyH (protein, UniProt Q8W191 1-149)
chain: MSLQRPNGNSSSSSSHKKHKTEESDEELLMVPDMEAAGSTCVLSSSADDGVNNPELDQTQNGVSTAKRRRGRNPVDKEYRSLKRLLRNRVSAQQARERKKVYVSDLESRANELQNNNDQLEEKISTLTNENTMLRKMLINTRPKTDDNH
As for B2, the binding entry in assay [6] and in assay [7] was “binds” each time.
